Test results as given in PubChem BioAssay AID1745853 (National Center for Advancing Translational Sciences (NCATS), 2022).
This is one part of the list. These are further read-outs of the screen, such as a control signal, another cell line or another target. No call is given for them. Peptide text beside a SMILES is read from it. * marks the point of attachment. Cbz = O=C(OCc1ccccc1)*; CH2Cl = ClC*

Columns and labels:
Assay in all cases: Primary Screen for Target Class Profiling of Small Molecule Inhibitors of Methyltransferases
[1] = target: Glycine N-methyltransferase (Homo sapiens) (UniProt Q14749); conditions: purified enzyme, MTase-Glo SAH luminescence; measured here: GNMT inhibition; at 40 µM; stronger effect = lower value
Method in brief: (§1)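 Each enzyme was assayed with SAM and its substrate. SAH formation detected by MTase-Glo luminescence; single-point 40 uM screen[…].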

[2] = target: Guanidinoacetate N-methyltransferase (Homo sapiens) (UniProt Q14353); conditions: purified enzyme, MTase-Glo SAH luminescence; measured here: GAMT inhibition; at 40 µM; stronger effect = lower value
Method in brief: as §1

[3] = target: Histamine N-methyltransferase (Homo sapiens) (UniProt P50135); conditions: purified enzyme, MTase-Glo SAH luminescence; measured here: HNMT inhibition; at 40 µM; stronger effect = lower value
Method in brief: as §1

[4] = target: Nicotinamide N-methyltransferase (Homo sapiens) (UniProt P40261); conditions: purified enzyme, MTase-Glo SAH luminescence; measured here: NNMT inhibition; at 40 µM; stronger effect = lower value
Method in brief: as §1

[5] = target: Phenylethanolamine N-methyltransferase (Homo sapiens) (UniProt P11086); conditions: purified enzyme, MTase-Glo SAH luminescence; measured here: PNMT inhibition; at 40 µM; stronger effect = lower value
Method in brief: as §1
On the % scale 0 is the no-effect control and ±100 the full control effect.

| SMILES | activity change, negative = inhibition [1] [%] | activity change, negative = inhibition [2] [%] | activity change, negative = inhibition [3] [%] | activity change, negative = inhibition [4] [%] | activity change, negative = inhibition [5] [%] |
| --- | --- | --- | --- | --- | --- |
| COc1ccccc1CNC(=O)C1(C)Cn2c(cc3ccccc32)C(=O)N1Cc1cccc(Br)c1 (stereo not given) | -6.82 | 2.33 | -0.413 | -6.23 | -3.48 |
| O=C(NCc1ccco1)C1COC2(CCN(C(=O)c3ccc(F)cc3)CC2)N1C(=O)c1ccco1 (stereo not given) | -5.05 | -2.93 | 0.462 | -2.94 | 0.634 |
| CN(C)c1ccc(C(=O)N[C@H]2C[C@@H](c3nc(-c4ccc5ccccc5c4)no3)N(C)C2)cc1 | -10.7 | -5.96 | -10 | -15.8 | 5.75 |
| Cc1c(CN2CCCC23CCN(c2ccc(C(F)(F)F)cn2)CC3)cc(C#N)n1C | -2.09 | 2.57 | -4.26 | -1.46 | -10.3 |
| CCOC(=O)CC(NS(=O)(=O)c1ccc2[nH]c3c(c2c1)CCCC3)c1ccccc1Cl (stereo not given) | 6.5 | 4.57 | 9.02 | -4.58 | 6.35 |
| COc1cccc(Cn2nc3n(C(C)C)c(=O)c4ccc(C(=O)NC5CCCCC5)cc4n3c2=O)c1 | -2.03 | 4.85 | 2.37 | -0.128 | 1.74 |
| O=C(NC[C@H]1OC[C@@H](NCc2ncc[nH]2)[C@@H]1O)c1cccs1 | 0.238 | -9.17 | -0.304 | -2.27 | -0.086 |
| Cc1cc(O)cc(Oc2cc(C)c(C(=O)O)c(O)c2)c1 | -13.4 | -4.27 | -16.7 | -23.4 | -3.4 |
| C/C(=C\CCC1(C)C2CCC(C2)C1(C)O)C(=O)O (stereo not given) | -3.46 | 0.206 | 9.17 | -21.4 | 0.554 |
| Cc1ccccc1CN1CCn2c(nn(CC3COc4ccccc4O3)c2=O)C1=O (stereo not given) | -4.04 | -3.04 | -2.79 | -9.61 | -8.64 |
| CC1CC(C)CN(S(=O)(=O)c2ccc3c(c2)oc(=O)n3CC(=O)NCCCOC(C)C)C1 (stereo not given) | -4.8 | -22.1 | 9.69 | 9.81 | -7.45 |
| C=CC(C)(C)C12C=C(OC)C(=O)N3C(C(C)C)C(=O)NC31N(OC)c1ccccc12 (stereo not given) | -3.83 | 3.63 | 0.93 | -12.5 | -3.61 |
| Cn1c(=O)[nH]cc(CC(=O)NCc2cccnc2-n2ccnc2)c1=O | -4.49 | -14.4 | -6.1 | -12.1 | -9.45 |
| Cc1noc2c(NC3CCN(C)CC3)cc(-c3cccs3)nc12 | -5.18 | -0.208 | -63.2 | -22.3 | -22.9 |
| Cc1cccc(C)c1OCc1cc(C(=O)N2CCC(c3ccncc3)CC2)no1 | -9.62 | -13.1 | -5.1 | -37.7 | -16.8 |
| O=C1CC(c2nc(-c3cn4ccccc4n3)no2)CN1Cc1ccncc1 (stereo not given) | -7.45 | -11.9 | -11.8 | -22.4 | -6.14 |
| CC(C)CCn1c(=O)c2ccc(C(=O)NC(C)C)cc2n2c(=O)n(Cc3ccc(Cl)cc3)nc12 | 4.31 | 0 | 6.16 | -3.08 | 2.95 |
| C=C1CC[C@@H]2C(C)(C)CCC[C@@]2(C)[C@@H]1CC/C(=C/C(=O)OC)COC(C)=O | -1.68 | -14.3 | 8.75 | -19.9 | -11.7 |
| Cc1cnc(-c2ccccc2)n1CC1CCN(S(=O)(=O)Cc2ccccc2F)CC1 | -5.54 | -0.835 | -7.93 | -10.6 | -16.5 |
| CC1(C(=O)NC2CCCCCCC2)Cn2c(ccc2-c2ccccc2)C(=O)N1CCc1ccccc1 (stereo not given) | -9.01 | -5.19 | -4.63 | -4.6 | -1.12 |

| SMILES | activity change, negative = inhibition [1] [%] | activity change, negative = inhibition [2] [%] | activity change, negative = inhibition [3] [%] | activity change, negative = inhibition [4] [%] | activity change, negative = inhibition [5] [%] |
| --- | --- | --- | --- | --- | --- |
| O=C(C1CCCCC1)N1CC(=O)N2CCc3ccccc3C2C1 (stereo not given) | 1.25 | 13.3 | 7.06 | -2.65 | 6.85 |
| CC/C=C\C[C@H]1C(=O)C=C[C@@H]1CCCCCCCC(=O)O | -8.05 | -6.8 | 5.38 | -20.3 | 2.08 |
| Cn1nc(C(=O)NC2CC2)c2c1CN(C(=O)Cc1cccc(F)c1)C2 | -1.59 | -7.45 | -0.333 | -9.28 | -3.46 |
| C[C@@H]1CCO[C@H]2Cn3cc(C(=O)NCc4ccc(F)cc4F)c(=O)c(O)c3C(=O)N12 | -7.39 | -10.5 | -2.31 | -25.1 | -6.87 |
| Cc1noc(C)c1C(=O)N1CCOc2ccc(CCC(=O)NCC3CC3)cc2C1 | 2.02 | 0.912 | 2.51 | -4.12 | -0.276 |
| COCC1CN(C2CCC2)CC12CCN(C(=O)NCCc1ccccc1)CC2 (stereo not given) | -5.28 | -5.59 | -4.41 | -11.1 | 13.6 |
| COc1c(C)c(OCC(O)C(C)(C)O)cc2c1COC2=O (stereo not given) | 0 | -0.329 | -4.08 | -12.3 | -2.35 |
| C[C@H](C/C=C/C(C)(C)O)[C@H]1CC[C@@]2(C)[C@@H]3[C@@H](O[C@@H]4O[C@H](CO)[C@@H](O)[C@H](O)[C@H]4O)C=C4C(CC[C@H](O)C4(C)C)[C@]3(C=O)CC[C@]12C (stereo not given in full) | 0 | 13 | 10.6 | 1.15 | 3.54 |
| CNc1nc2c(c(C(=O)N3CCCC3)n1)CN(CC1(O)CCNC1)CC2 (stereo not given) | -0.396 | -1.41 | 0.011 | -0.695 | -0.622 |
| COc1ccc(-c2cc3n(n2)CC(C)(C(=O)NCc2ccccc2OC)N(c2cc(C)ccc2OC)C3=O)cc1 (stereo not given) | 1.53 | 5.13 | 7.04 | -0.033 | -0.061 |
| O=S(=O)(Nc1ccc(F)cc1)c1ccc2[nH]c3c(c2c1)CCCC3 | -5.36 | 0 | 1.18 | -9.45 | 0.853 |
| Cc1ccccc1CNC(=O)C(C)n1ccc2cc(S(=O)(=O)N3CCCC3)ccc21 (stereo not given) | -3.74 | -3.07 | -1.46 | -8.48 | -5.1 |
| COc1ccccc1CNC(=O)C1c2c(n(C)c3ccccc23)SCC(=O)N1c1ccc(C(C)C)cc1 (stereo not given) | 6.33 | 3.3 | -1.03 | 5.1 | 5.82 |
| CC(C)C[C@H](NC(=O)CNC(=O)OCc1ccccc1)C(=O)N[C@@H](Cc1ccccc1)C(=O)CCl (Cbz-Gly-Leu-Phe-CH2Cl) | -5.09 | 7.89 | 4.67 | -6.15 | -0.295 |
| CC(CNC(=O)CCc1nnc2n(Cc3ccccc3)c(=O)c3ccccc3n12)c1ccccc1 (stereo not given) | -12.5 | 6.61 | -1.44 | -11.4 | -10.2 |
| Cc1c(O)cc2c(c1O)COC1(O)CCCOC21 (stereo not given) | 3.31 | 5.45 | 6.12 | -6.91 | 2.5 |
| CC(C)Cn1c(=O)c2cc(F)ccc2n2c(SCC(=O)NC3CCCCC3)nnc12 | 5.02 | 1.81 | 11.6 | 9.68 | 8.83 |
| Cc1c(Cl)cccc1NC(=O)CN(C)S(=O)(=O)c1ccc2[nH]c3c(c2c1)CCCC3 | -2.19 | 0.759 | -3.66 | 0.594 | 0.864 |
| O=C(CCc1nc2ccccc2s1)N[C@@H]1CCOC[C@H]1OCCO | -3.06 | -2.26 | -0.755 | -4.1 | 0.708 |
| CC1=C[C@@H](CNC2CCOCC2)[C@H](C(C)C)C[C@H]1Cc1nc2ccc(F)cc2[nH]1 | 0.153 | 2.74 | -49.9 | -16 | 11.1 |

| SMILES | activity change, negative = inhibition [1] [%] | activity change, negative = inhibition [2] [%] | activity change, negative = inhibition [3] [%] | activity change, negative = inhibition [4] [%] | activity change, negative = inhibition [5] [%] |
| --- | --- | --- | --- | --- | --- |
| CCCCN1C(=O)c2cc(C(=O)Nc3cc(C)cc(C)c3)nn2CC1(C)C(=O)NC1CCCC1 (stereo not given) | 7.71 | 3.63 | -38.4 | 2.09 | 5.36 |
| COc1ccc(C[C@H]2COC(=O)[C@@H]2Cc2ccc(O[C@@H]3O[C@H](CO)[C@@H](O)[C@H](O)[C@H]3O)c(OC)c2)cc1OC | 1.49 | -1.09 | 6.33 | -10.7 | -6.06 |
| O=C(Nc1ccc(F)cc1)N1Cc2c(sc3c2CCCC3)-n2cccc2C1c1cccc(F)c1 (stereo not given) | -0.804 | 3.05 | 3.09 | -1.98 | 1.81 |
| Cc1nc(N2CCN(C(=O)C(C)Oc3ccccc3)CC2)cc(C(F)(F)F)n1 (stereo not given) | -3.13 | -0.505 | -1.27 | -9.11 | 8.83 |
| C(=C\c1ccccc1)/CN1CCN(C(c2ccccc2)c2ccccc2)CC1 | -7.58 | 1.15 | -0.866 | -11.1 | 2.2 |
| CCc1cc2c(cc3n2CC(C)(C(=O)NC2CCCCCC2)N(CCN2CCCC2)C3=O)s1 (stereo not given) | 3.95 | 2.3 | -4.04 | 0.864 | -0.899 |
| CCCn1c(=O)c2cc(F)ccc2n2c(SCC(=O)NCc3ccc(Cl)cc3)nnc12 | -1.98 | 0 | 8.55 | -0.441 | 3.41 |
| Cc1n[nH]c(C)c1CNC(=O)C1CCN(c2cn[nH]c(=O)c2)C1 (stereo not given) | -0.662 | 0.541 | 1.09 | -2.38 | 1.46 |
| COc1ccc2c(c1)c(CC(=O)O)c(C)n2C(=O)c1ccc(Cl)cc1 | -10.1 | 4.01 | -0.43 | -9.76 | -1.58 |
| CCCN1C(=O)c2cc3occc3n2CC1(C)C(=O)NC1CCC(C)CC1 (stereo not given) | -1.66 | 2.97 | -2.96 | 5.38 | 0.096 |
| CC(C)Cn1c(=O)c2ccc(C(=O)NC(C)C)cc2n2c(SCc3ccccc3)nnc12 | 5 | 0 | 8.02 | 3.87 | 5.26 |
| Cc1ccc(-c2noc(-c3cccc(S(=O)(=O)N4CCN(c5cc(C)ccc5C)CC4)c3)n2)cc1 | -8.05 | -3.8 | -12.6 | -13 | -10.8 |
| Nc1nc2ccc(OC(F)(F)F)cc2s1 | 4.67 | 10.7 | 9.28 | -8.16 | -5.58 |
| CCCN1CCC(c2cccc(S(C)(=O)=O)c2)CC1 | 0.107 | -2.99 | 4.37 | -12.2 | 0.6 |
| Cc1cc(C)cc(N2C(=O)c3cc(-c4cccs4)nn3CC2(C)C(=O)NC2CCCCC2)c1 (stereo not given) | -1.03 | 0 | -0.634 | 7.6 | 0.2 |
| CC1CCCC(NC(=O)C2(C)Cn3c(nc4ccccc43)C(=O)N2Cc2ccc3c(c2)OCO3)C1C (stereo not given) | 4.16 | 0 | 6.21 | -4.95 | 1.96 |
| CC(C)CCNC(=O)C1c2c(n(C)c3ccccc23)SCC(=O)N1Cc1ccc(Cl)cc1 (stereo not given) | 3.92 | -3.64 | 2.3 | -4.63 | 1.04 |
| CCOC(=O)c1cc2n(n1)CC(C)(C(=O)NCCC(C)C)N(c1cc(C)cc(C)c1)C2=O (stereo not given) | 0.04 | 0 | 1.89 | 0.111 | 1.23 |
| CC1(C(=O)NC2CCCCCC2)Cn2c(cc3occc32)C(=O)N1Cc1cccc(Br)c1 (stereo not given) | -3.74 | 1.2 | -1.6 | -15.3 | -3.8 |
